Measured values as given in PubChem BioAssay AID2675 (National Center for Advancing Translational Sciences (NCATS), 2010).
About 100 (0.036%) of roughly 280,000 compounds were called active. Inconclusive means that the source gave no clear call. Such entries were picked first, then a sample of the others. Calls come from the whole dose curve; as a rule, active = well fitted inhibition curve with a large enough effect in the signal ratio, with a control signal flat (not every such curve was filed as active); inconclusive = small, poorly fitted or top-dose-only effect, or effect the other way, or a change in a side signal; inactive = no such curve, though single readings can be large or run the other way; the % refers to the signal ratio. Potencies of inconclusive entries are doubtful fits and often do not repeat. “Side channel” marks fits to a control or component signal instead of the main read-out.

Target: Muscleblind-like protein 1 (Homo sapiens) (UniProt Q9NR56)
UniProt Q9NR56, sequence (Q9NR56 whole entry, looked up): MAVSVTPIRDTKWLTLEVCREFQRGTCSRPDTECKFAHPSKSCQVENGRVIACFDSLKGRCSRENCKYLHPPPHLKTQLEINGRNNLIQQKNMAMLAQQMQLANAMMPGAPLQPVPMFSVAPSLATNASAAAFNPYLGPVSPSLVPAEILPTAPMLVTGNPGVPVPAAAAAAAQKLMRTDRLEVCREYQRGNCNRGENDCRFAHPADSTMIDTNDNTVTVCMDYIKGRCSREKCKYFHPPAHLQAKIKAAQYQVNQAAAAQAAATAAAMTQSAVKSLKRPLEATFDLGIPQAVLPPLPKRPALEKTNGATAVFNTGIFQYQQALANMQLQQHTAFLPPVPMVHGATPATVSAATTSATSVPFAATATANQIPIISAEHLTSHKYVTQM
Assay: qHTS Assay for Inhibitors of MBNL1-poly(CUG) RNA binding
Conditions: TR-FRET MBNL1-His/biotin-(CUG)12 binding, 665/545 ratio; activity change, negative = inhibition: at 57.5 µM (top of the series)
Outline: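 Compound titration spanned 92 nM–58 uM against the MBNL1-His/biotin-(CUG)12 complex. After 60 min at room temperature with 5 nM streptavidin-XL665 and 0.055 ng/ul terbium anti-His, ratiometric 665/545 nm emission (Ex 340 nm) normalized to controls.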
% is set by controls: 0 for no effect and ±100 for the full control effect; potency is the fitted concentration of half-maximal effect; tags give direction and shape of the fitted curve or compound fluorescence and quenching.

SMILES | Potency | activity change, negative = inhibition
O=[N+]([O-])c1cc(S(=O)(=O)Nc2ccccc2)ccc1-n1nnc2ccccc21 | inconclusive: 28.2 µM [quencher, side channel, single point] | –
Nc1c(C(=O)NC2CCCC2)sc2nc(-c3cccs3)ccc12 | inconclusive: 31.6 µM [quencher, side channel, single point] | –
CCc1ccc(/C=N/NC(=O)c2c[nH]c3ccccc23)s1 | inconclusive: 8.91 µM [quencher, side channel, partial curve] | –
CC(=O)N1c2ccc(S(=O)(=O)NCCC(=O)N3CCC(C)CC3)cc2CC1C (stereo unspecified) | – | inactive: -6.04%
CC1=NN(C(N)=S)C(=O)C1N=Nc1ccc([N+](=O)[O-])cc1 (stereo unspecified) | inconclusive: 3.98 µM [quencher, side channel, partial curve] | –
O=C(CCSc1nnc(-c2ccncc2)o1)Nc1ccccc1 | – | inactive: -5.06%
CCCN1CCN(C(=O)C2CCN(S(=O)(=O)c3c(C)noc3/C=C/c3ccc(C)cc3)CC2)CC1 | inconclusive: 28.2 µM [quencher, side channel, partial curve] | –
COc1ccc(N2CCN(C(CNC(=O)CC(C)(C)C)c3ccc4c(c3)OCO4)CC2)cc1 (stereo unspecified) | – | inactive: -4.65%
COCCNc1ccc([N+](=O)[O-])cc1C(=O)NC1CCCc2ccccc21 (stereo unspecified) | inconclusive: 14.1 µM [quencher, side channel, partial curve] | –
COC(=O)Cc1ccc(NC(=O)c2ccc3c(c2)C(=O)N(Cc2cccnc2)C3=O)cc1 | inconclusive: 2.82 µM [quencher, side channel, full curve] | –
CCn1c(SCC(=O)NCc2ccco2)nc2cccnc21 | inconclusive: 0.141 µM [quencher, side channel, full curve, poor fit] | –
CN1/C(=C\C(=O)COC(=O)Cn2nnc(-c3ccccc3)n2)C(C)(C)c2ccccc21 | – | inactive: 11.5%
COC(=O)c1cn(CCC#N)nc1-c1ccc2ccccc2c1 | inconclusive: 35.5 µM [quencher, side channel, single point] | –
Cc1ccc(CNC(=O)CCC(=O)Nc2nnc(C3CCCCC3)s2)cc1 | – | inactive: 3.49%
O=C1OCCC1Sc1nnc(-c2ccccc2Cl)n1Cc1ccccc1 (stereo unspecified) | inconclusive: 2.82 µM [quencher, side channel, partial curve] | –
O=C(O)c1ccccc1Nc1ccc2nonc2c1[N+](=O)[O-] | inconclusive: 10 µM [quencher, side channel, partial curve] | –
O=C(CSc1nncn1-c1ccccc1)Nc1ccc(N2CCOCC2)cc1 | – | inactive: -8.15%
Cc1ccc(-c2cn3cc([N+](=O)[O-])ccc3n2)cc1 | inconclusive: 1.58 µM [quencher, side channel, full curve] | –
O=C1CSC(c2ccc([N+](=O)[O-])cc2)N1c1ccc(O)cc1 (stereo unspecified) | inconclusive: 14.1 µM [quencher, side channel, partial curve] | –
Cc1ccc(N(CN2C(=O)c3ccccc3C2=O)C(=O)c2ccc([N+](=O)[O-])cc2[N+](=O)[O-])cc1 | inconclusive: 7.94 µM [quencher, side channel, full curve] | –
COc1ccc(S(=O)(=O)NCC(c2cccnc2)N2CCN(c3ccc(F)cc3)CC2)cc1C (stereo unspecified) | inconclusive: 39.8 µM [quencher, side channel, single point] | –

SMILES | Potency | activity change, negative = inhibition
CCOC(=O)N1CCC(NC(=O)Cn2cc3c(n2)CCCC3)CC1 | inconclusive: 8.91 µM [quencher, side channel, full curve, poor fit] | –
CCOC(=O)c1c(-c2ccccc2)c2cc(OC)ccc2n1CCCN(C)C | inconclusive: 22.4 µM [quencher, side channel, partial curve] | –
CC(NC(=O)C1CCCN1S(=O)(=O)c1cccc2nsnc12)c1ccccc1 (stereo unspecified) | inconclusive: 15.8 µM [quencher, partial curve] | –
CCOC(=O)c1c(NC(=O)/C=C/c2ccc(C)o2)sc(C)c1C | – | inactive: 10.8%
COc1ccc(C(=O)c2ccc(N3CCN(C4CC(=O)NC4=O)CC3)cc2)cc1F (stereo unspecified) | inconclusive: 17.8 µM [quencher, side channel, single point] | –
NNC(=O)c1cccc(Cn2cc(Br)c([N+](=O)[O-])n2)c1 | inconclusive: 14.1 µM [quencher, side channel, partial curve] | –
CCN(Cc1ccccc1)c1ccc(/C=N/NS(=O)(=O)c2cccc([N+](=O)[O-])c2)cc1 | inconclusive: 6.31 µM [quencher, side channel, full curve] | –
CN(C)c1ccc(C2SCCN2C(=O)c2ccc([N+](=O)[O-])cc2)cc1 (stereo unspecified) | inconclusive: 17.8 µM [quencher, side channel, partial curve] | –
CCOc1ccc(CCN2C(=O)C3C4C=CC(C4)C3C2=O)cc1OCC (stereo unspecified) | – | inconclusive: -10.8% [phenotype inactive]
Cc1ccccc1OCC(=O)N/N=C/c1sc(=O)n(Cc2cccc(C(=O)O)c2)c1Cl | inconclusive: 39.8 µM [quencher, single point] | –
O=C(c1ccco1)N1CCN(Cc2nnc(-c3cccc(Cl)c3)o2)CC1 | – | inactive: -4.11%
Cc1c(NC(=O)COC(=O)CSc2ccc(C(N)=O)cc2[N+](=O)[O-])c(=O)n(-c2ccccc2)n1C | inconclusive: 7.94 µM [quencher, side channel, partial curve] | –
O=C(O)c1cc(NS(=O)(=O)c2cccc3nsnc23)cc(C(=O)O)c1 | inconclusive: 14.1 µM [quencher, side channel, partial curve] | –
CCn1c(/C=C/N(C(C)=O)c2ccccc2)[n+](CC)c2ccc(Cl)cc21 | – | inactive: -16%
CCOc1ccc2[nH]c(=O)c(CN(CCO)C(=O)c3ccc(OC)c(OC)c3)cc2c1 | – | inactive: -2.8%
COc1ccc(NC(=O)CCS(=O)(=O)c2cccc3nonc23)cc1 | inconclusive: 14.1 µM [quencher, partial curve] | –
O=C(COc1cc2oc(=O)c3c(c2cc1Cl)CCC3)NCCCN1CCCC1=O | inconclusive: 28.2 µM [quencher, side channel, single point] | –
CCOc1ccccc1CN1CCN(Cc2cccc3nonc23)CC1CCO (stereo unspecified) | – | inactive: -8.37%
O=C1NC(=O)c2cc(Br)cc3cccc1c23 | inconclusive: 10 µM [quencher, side channel, partial curve, poor fit] | –
COc1ccc2c(c1OC)C(=O)N1C(C(=O)O)Cc3c([nH]c4ccccc34)C21 (stereo unspecified) | inconclusive: 15.8 µM [quencher, side channel, single point] | –
O=C(N/N=C/c1ccc(N2CCCCC2)o1)c1ccccc1 | inconclusive: 15.8 µM [quencher, side channel, partial curve] | –

SMILES | Potency | activity change, negative = inhibition
C=CCn1c(NC(=O)c2ccco2)c(S(=O)(=O)c2ccccc2)c2nc3ccccc3nc21 | – | inactive: 28.2%
C#CCN1C(=O)S/C(=C\c2ccc(-c3ccc(Cl)c(C(=O)O)c3)o2)C1=O | – | inactive: 18%
Cn1c(SCC(=O)Nc2nccs2)nnc1-c1ccco1 | inconclusive: 8.91 µM [quencher, side channel, single point] | –
CC1=NN(c2ccccc2)C(=O)C1C(=O)c1ccc([N+](=O)[O-])cc1 (stereo unspecified) | inconclusive: 10 µM [quencher, side channel, partial curve] | –
O=C(NC(=S)N1CCCC1)c1ccc(Cl)cc1 | – | inactive: -7.89%
Cc1cccc(CNS(=O)(=O)c2ccc(-c3ccc(=O)[nH]n3)s2)c1 | inconclusive: 15.8 µM [quencher, side channel, partial curve] | –
Nc1ncc(-c2cc3ccccc3oc2=O)s1 | inconclusive: 25.1 µM [quencher, partial curve] | –
CN(C)c1cc[n+](CC(=O)c2ccc(-c3ccccc3)cc2)cc1 | – | inactive: 2.47%
OC1CCCN(C(=S)Nc2ccc(SC(F)F)cc2)C1 (stereo unspecified) | – | inactive: -6.23%
Cc1cccc(NC(=O)CN2C(=O)N/C(=C\c3ccc(-c4cccc(C(=O)O)c4)o3)C2=O)c1 | inconclusive: 39.8 µM [quencher, single point] | –
Cc1ccc(-c2cn(S(=O)(=O)c3cccc([N+](=O)[O-])c3)nc2N)cc1 | inconclusive: 8.91 µM [quencher, side channel, partial curve] | –
O=C(NCC(c1cccnc1)N1CCN(c2ccccc2F)CC1)c1ccco1 (stereo unspecified) | inconclusive: 25.1 µM [quencher, side channel, single point] | –
O=C(NNC(=O)c1cc(-c2ccncc2)nc2ccccc12)Nc1ccc(F)cc1 | inconclusive: 17.8 µM [quencher, side channel, partial curve] | –
COc1ccccc1N=C1NC(=O)/C(=C/c2ccc(N(C)C)cc2)S1 | inconclusive: 14.1 µM [quencher, side channel, partial curve] | –
CCOc1ccc(N=NC2C(=O)N(C(N)=S)N=C2C)cc1 (stereo unspecified) | inconclusive: 17.8 µM [quencher, side channel, partial curve] | –
Cc1ccc([N+](=O)[O-])cc1NC(=O)C1CCCC1 | inconclusive: 11.2 µM [quencher, side channel, partial curve] | –
O=C(c1ccc(-c2nc3ccccc3s2)s1)N1CCOCC1 | inconclusive: 39.8 µM [quencher, single point] | –
CN(c1ccccc1C(=O)O)S(=O)(=O)c1ccc2c3c(cccc13)C(=O)N2 | inconclusive: 39.8 µM [quencher, single point] | –
C/C(=N\NC(=O)c1cccc2ccccc12)c1ccccn1 | – | inactive: 0.502%
